# From paper PMC12136788
# The list shows a part of the results.
# B1: chr19:45489345:45489553:-|CDS|ENSG00000125744|control|control|control (ssRNA)
# RNA: GGGAGUUCUACAGUCCGACGAUCAGGACGUCAGGAGUGGUCUUCACAGGCCUGAUGGUCUCCCUCCUCUGCCUCCUGCACUUUAGCAUCGUGUCCGUGGCCGCGCACUUGGCUCUGUUGCUGCUCUGCGGCACCAUCUCUCUCCAACAGAGGAUUGAGCAUCA
# B2: chr19:35623609:35623710:+|3pUTR|ENSG00000249115|unk|FALSE|unique (ssRNA)
# RNA: GGGAGUUCUACAGUCCGACGAUCGCCUUCUAGUUUGUAUAGUUUCUUUUUUUACAUGUAAAUCAGCCAUUUGGAAUUUAUCCUAGCACAUGGAUCCAAUUUUGUCUUAUUUUACAUAUAUCCUAGUAGCACUUACUGAAAUUCCAACAGAGGAUUGAGCAUCA
# B3: chr14:99169286:99174150:-|three_prime_utr|ENSG00000127152|control|control|control (ssRNA)
# RNA: GGGAGUUCUACAGUCCGACGAUCAAUUCCUUUAAGAGAUUUUGUUGGGUAUCCAUCCCUUCUUUGUUUUUUUUUUAACCCGGUAGUAGCCUGAGCAAUGACUCGCAAGCAAUGUUAGAGGGGAAGCAUAUCUUUUAAAUUAUACAACAGAGGAUUGAGCAUCA
# B4: chr10:86890108:86890218:+|CDS|ENSG00000107779|unk|FALSE|unique (ssRNA)
# RNA: GGGAGUUCUACAGUCCGACGAUCUCAUGGCACUGGGAUGAAAUCAGACUCCGACCAGAAAAAGUCAGAAAAUGGAGUAACCUUAGCACCAGAGGAUACCUUGCCUUUUUUAAAGUGCUAUUGCUCAGGGCACUGUCCAGAUGACAACAGAGGAUUGAGCAUCA
# B5: chr2:101892430:101892531:+|3pUTR|ENSG00000071054|msi1|total|mutant (ssRNA)
# RNA: GGGAGUUCUACAGUCCGACGAUCCCAUCCGAGGUUGAUGGGGCAACUGCAGCCCAUGACACAAGAUCUCAUUGUUCUCGAUGCCGAGGGGUUGGCCGCAGACAGGUGGUUACAUCCGAACCGUCACACAAACUGUUCAGUGUUCAACAGAGGAUUGAGCAUCA
# B6: chr3:52708059:52708100:+|3pUTR|ENSG00000114902|msi1_unk|total|mutant (ssRNA)
# RNA: GGGAGUUCUACAGUCCGACGAUCACACAAGUAUGAAGUUUCUUUCAGGUGUAAAUAAUGAAAAAUAAAUGCCUCAUAAAUGACCGUACAAUGUAACUAUCAAAGUUUUAUAAUUCAUUAUGAGUUAACCAUUUUAAUGUUUCCCAACAGAGGAUUGAGCAUCA
# B7: chr10:70774212:70774357:-|CDS|ENSG00000166220|control|control|control (ssRNA)
# RNA: GGGAGUUCUACAGUCCGACGAUCAAAAGACCUCGCUCUGGGACUCCUGCAGACAGCAGUGGCUCAGCUCCUUCCCCAGCCCCUAGUCUCCAUCCCUACAGAAAAGCUCCUAAGCCAGCUUCCAGAAGUGCAUGAACCUCCUCACAACAGAGGAUUGAGCAUCA
# B8: chr11:130144177:130144243:+|3pUTR|ENSG00000084234|msi1_unk|total|mutant (ssRNA)
# RNA: GGGAGUUCUACAGUCCGACGAUCAUGAGGGUGUCCGCUGCUGCUUUCCUUCGGAAUCCAGUGCUUCCACAGAGAUCCGCCUGCCGCUUAUAUUUGACAUUCUUCACUGUCUGUUGUUUACCUACCGCCGCUUUUUACCGUUCACAACAGAGGAUUGAGCAUCA
# B9: chr17:67340809:67340863:-|CDS_3pUTR|ENSG00000197170|msi1_unk|FALSE|overlapping (ssRNA)
# RNA: GGGAGUUCUACAGUCCGACGAUCACAAAACUACGCAUCUCAUAGCCAAAGAGGAGAUGAUACAUAAUCUACAAUAAGGGUCUUAGUGCUUUAGAAAAAAGUUAAAAUUGGAAGUCAUUAAAAAAAGACUGUUAUAAUGGUGUACAACAGAGGAUUGAGCAUCA
# B10: chr1:155134173:155134274:+|3pUTR|ENSG00000169242|msi1|total|mutant (ssRNA)
# RNA: GGGAGUUCUACAGUCCGACGAUCGCCACUUUCAGAGCCCCCAGCCCUGGGAACCACUCCCACCACAGGCAUAAGCUAUCACCCCGCAGCCUCAAAACGGGUCAGUAUUAAGGUUUUCAACCGGAAGGAGGCCAACCAGCCCGACAACAGAGGAUUGAGCAUCA
# B11: ENSG00000112679:stop:overlap|stop_codon|ENSG00000112679|stop_codon|NA|stop_codon (ssRNA)
# RNA: GGGAGUUCUACAGUCCGACGAUCGCUUCCAGAGACAGCUCCAGGAGUUUGAGAAGCAUGAGGUCCAUCAGGUAAGCAGUUCUUAGGGGACAUCAGAGAUGCAGGCAGGUGCCCCUGAACGGUGCCCACAGUCUUUCCGUACACCAACAGAGGAUUGAGCAUCA
# B12: chr4:173248057:173248158:+|CDS|ENSG00000109586|unk|total|mutant (ssRNA)
# RNA: GGGAGUUCUACAGUCCGACGAUCUUCAAACCUGUGGUACCAUGGCCUCAUGUUGAAGGAGCCGAAGUGGACUCCGAGUCUAUCCGAAGAAUAAACAAGGCCAAAAAUGAACAAGAGCACCAUGCUGGAGGAGAUUCCCAGAAACAACAGAGGAUUGAGCAUCA
# B13: chr20:59325757:59325866:+|3pUTR|ENSG00000124205|unk|total|mutant (ssRNA)
# RNA: GGGAGUUCUACAGUCCGACGAUCUUAUGUGGAUCUGUUCAAAGCCGUCACUGUAUAUACGUACCGAGAGGCCGACCGGCCGGCCGAUUUUAAAUUGCAUUCUGAAUACAAACUCAUACUCCUCCGAGCUUGAAUUACAUUUUUCAACAGAGGAUUGAGCAUCA
# B14: ENSG00000070961:be:win_6001|3pUTR|ENSG00000070961|bound_else_gene|NA|bound_elsewhere_windowed (ssRNA)
# RNA: GGGAGUUCUACAGUCCGACGAUCCAAGACAUGCUUAGUGUGUAUUUCUCUCUUUGAGACACUGUAAUUUCUACCAGAAAUUUCCAGAGCAUUAUGUAGGUAGAAAAAAAUGCAAGCAAGCUGUUAAAGAUCUUGGAUCCCAUUCAACAGAGGAUUGAGCAUCA
# Biological target: MSI1 full-length (mouse, UniProt Q61474 1-362)
# Assay: nsRBNS (natural sequence RNA bind-n-seq); RBNS binding buffer (assumed for nsRBNS): 25 mM Tris pH 7.5, 150 mM KCl, 3 mM MgCl2, 0.01% Triton X-100, 500 ug/ml BSA, 20 U/ml SUPERase-In, 4 C; UNK is unkempt and MSI1 is Musashi-1; names of the RNAs are library labels; protein concentration not given here; high values mean tight binding
# UniProt Q61474, sequence (Q61474 whole entry): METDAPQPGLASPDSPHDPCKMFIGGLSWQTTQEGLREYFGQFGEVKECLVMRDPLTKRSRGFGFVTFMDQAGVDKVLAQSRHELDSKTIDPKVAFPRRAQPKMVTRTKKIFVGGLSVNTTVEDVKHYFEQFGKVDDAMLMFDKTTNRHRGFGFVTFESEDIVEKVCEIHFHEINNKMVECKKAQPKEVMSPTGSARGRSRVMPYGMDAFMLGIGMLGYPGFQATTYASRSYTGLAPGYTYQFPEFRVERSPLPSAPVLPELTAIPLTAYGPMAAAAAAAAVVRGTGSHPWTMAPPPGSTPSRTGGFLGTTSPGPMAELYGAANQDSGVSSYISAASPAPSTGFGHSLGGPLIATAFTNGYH
row,Binder,binding signal [enrichment R]
1,B1,0.564
2,B2,7.14
3,B3,3.47
4,B4,0.299
5,B5,0.345
6,B6,0.7
7,B7,1.1
8,B8,0.557
9,B9,6.28
10,B10,0.741
11,B11,0.639
12,B12,0.278
13,B13,0.342
14,B14,0.464
